The record followed here is a collection of fitness landscapes (doi:10.1126/science.1257360).

The labels stand for the following.
B1: PhoQ; a variant is named by its letters at X, in order, P23837 (parent)
chain: MKKLLRLFFPLSLRVRFLLATAAVVLVLSLAYGMVALIGYSVSFDKTTFRLLRGESNLFYTLAKWENNKLHVELPENIDKQSPTMTLIYDENGQLLWAQRDVPWLMKMIQPDWLKSNGFHEIEADVNDTSLLLSGDHSIQQQLQEVREDDDDAEMTHSVAVNVYPATSRMPKLTIVVVDTIPVELKSSYMVWSWFIYVLSANLLLVIPLLWVAAWWSLRPIEALAKEVRELEEHNRELLNPATTRELTSLVRNLNRLLKSERERYDKYRTTLTDLTHSLKTPLXXLQXXLRSLRSEKMSVSDAEPVMLEQISRISQQIGYYLHRASMRGGTLLSRELHPVAPLLDNLTSALNKVYQRKGVNISLDISPEISFVGEQNDFVEVMGNVLDNACKYCLEFVEISARQTDEHLYIVVEDDGPGIPLSKREVIFDRGQRVDTLRPGQGVGLAVAREITEQYEGKIVAGESMLGGARMEVIFGRQHSAPKDE

This is one part of the list.

The variants in the assay derive from B1. Kind of assay: enrichment ratio after two sorts for PhoP signalling (ratio (wild type AVST 3.29)); higher = more functional. To be noted: with PhoP (E. coli).
Consider APDG, for which the enrichment ratio was not above 0.25. In the case of QLDW, the enrichment ratio was not above 0.25. For the variant VFKI, the enrichment ratio is not above 0.25. Next, QACA: not above 0.25; PQPP: not above 0.25.

As for HCKV, the enrichment ratio was not above 0.25. Regarding AMSH, the enrichment ratio came to 4.9. As for HRQY, the enrichment ratio was not above 0.25. In the case of IFGG, the enrichment ratio was not above 0.25. With WQTC, the enrichment ratio is not above 0.25.

Regarding TPSA, the enrichment ratio was not above 0.25. Turning to RTIY, the enrichment ratio is not above 0.25. Consider RPYS, for which the enrichment ratio was not above 0.25. As for NVFM, the enrichment ratio was not above 0.25. Next, NEHS: not above 0.25; SIDC: not above 0.25. For PRMY, the enrichment ratio is not above 0.25.

In the case of DKWT, the enrichment ratio was not above 0.25.

In the case of FAYK, the enrichment ratio is not above 0.25. Turning to DMPM, the enrichment ratio is not above 0.25. As for LTPL, the enrichment ratio was not above 0.25.

With TREF, the enrichment ratio is not above 0.25. For EIFP the value was not above 0.25; for QILP, not above 0.25. For WYNW the value was 2.3; for TPNC, not above 0.25; for SIPP, not above 0.25. Turning to KIGQ, the enrichment ratio is not above 0.25. Turning to VMLY, the enrichment ratio was not above 0.25. For VYRY the value was not above 0.25; for QNCT, not above 0.25.

Turning to TLPV, the enrichment ratio is not above 0.25. For NVPM the value was not above 0.25. For GKRW, the enrichment ratio was not above 0.25. INSV: the enrichment ratio is not above 0.25. Regarding ARIF, the enrichment ratio was not above 0.25. On to PAWG, for which the enrichment ratio was not above 0.25.

Take HRFN: the enrichment ratio is not above 0.25. On to DRWK, for which the enrichment ratio was not above 0.25. With CSFG, the enrichment ratio is not above 0.25. For YEDL, the enrichment ratio is not above 0.25.

With HFSS, the enrichment ratio was not above 0.25. Regarding HRKW, the enrichment ratio is not above 0.25. Consider QFCV, for which the enrichment ratio is not above 0.25. For the variant YSHT, the enrichment ratio is not above 0.25. With LWIS, the enrichment ratio is not above 0.25. Turning to KMRI, the enrichment ratio was not above 0.25. As for QTTI, the enrichment ratio is not above 0.25. For the variant HKWT, the enrichment ratio was not above 0.25. As for IHAG, the enrichment ratio is not above 0.25.

QNAR: the enrichment ratio is not above 0.25.

On to TQLW, for which the enrichment ratio came out at 1.8.

In the case of QTPA, the enrichment ratio is not above 0.25. Consider SNCE, for which the enrichment ratio is not above 0.25.

Consider LQKY, for which the enrichment ratio is not above 0.25. As to FTMC, the enrichment ratio is 2.44. For RYSL the value was not above 0.25; for WHHF, not above 0.25. In the case of RSSL, the enrichment ratio was not above 0.25. For GIFM the value was not above 0.25; for FEWK, not above 0.25. With NNHC, the enrichment ratio is not above 0.25.

As to LYLP, the enrichment ratio was not above 0.25. For RYRR the value was not above 0.25. Next, FHNN: not above 0.25; DHVQ: not above 0.25; AEGF: not above 0.25. As for LAMW, the enrichment ratio is not above 0.25. With FWRC, the enrichment ratio is not above 0.25. For PVMQ the value was not above 0.25; for EQYP, not above 0.25.

For AQIA, the enrichment ratio was not above 0.25. On to IANP, for which the enrichment ratio was not above 0.25. As for NPSK, the enrichment ratio is not above 0.25.

On to FATK, for which the enrichment ratio was not above 0.25. Take YHVF: the enrichment ratio is not above 0.25. With DKKD, the enrichment ratio was not above 0.25. In the case of EMDF, the enrichment ratio was not above 0.25. As for ITPQ, the enrichment ratio is not above 0.25. As to TMCE, the enrichment ratio was found to be 21.2. As to ECNG, the enrichment ratio is not above 0.25.

As to SLQS, the enrichment ratio is not above 0.25. IFYG: the enrichment ratio is not above 0.25. On to AFKK, for which the enrichment ratio was not above 0.25.

Consider QGSR, for which the enrichment ratio was 0.486.

Take MSQF: the enrichment ratio was not above 0.25. Consider DNAH, for which the enrichment ratio is not above 0.25. Next, NWNF: not above 0.25; TINR: 15.4. Regarding VNIE, the enrichment ratio is not above 0.25. Take QTLF: the enrichment ratio was not above 0.25.

Regarding HWRS, the enrichment ratio is not above 0.25. On to KIST, for which the enrichment ratio was not above 0.25. For ETWI, the enrichment ratio was not above 0.25. For LYTQ the value was not above 0.25.

With HASW, the enrichment ratio is not above 0.25. As to EQIC, the enrichment ratio was not above 0.25. Consider DRFA, for which the enrichment ratio is not above 0.25. On to EILQ, for which the enrichment ratio was not above 0.25.

With MVNP, the enrichment ratio was not above 0.25. For IHIM the value was not above 0.25. Turning to MGMK, the enrichment ratio was not above 0.25. For GGLT, the enrichment ratio came out at 7.43. Next, WHPG: not above 0.25; FLDF: not above 0.25. As to RSCT, the enrichment ratio was not above 0.25. Next, PWRD: not above 0.25; GNFQ: not above 0.25. Regarding VNPG, the enrichment ratio is not above 0.25.

QLNW: the enrichment ratio was not above 0.25. On to NCHD, for which the enrichment ratio was not above 0.25. For NNWP, the enrichment ratio was not above 0.25.

On to DCRV, for which the enrichment ratio is not above 0.25. In the case of DYND, the enrichment ratio was not above 0.25. Next, GFMF: not above 0.25. Next, PAGW: not above 0.25; YQYA: not above 0.25. In the case of QVWF, the enrichment ratio was not above 0.25. As for KSCF, the enrichment ratio is not above 0.25.

As to FQQL, the enrichment ratio was not above 0.25.

With MNGH, the enrichment ratio was not above 0.25. With EEYT, the enrichment ratio was not above 0.25. With TEFL, the enrichment ratio was determined as 8.81.

Turning to MPRN, the enrichment ratio was not above 0.25. With LVQR, the enrichment ratio is not above 0.25.

In the case of RRFR, the enrichment ratio was not above 0.25. As to RFAN, the enrichment ratio is not above 0.25. Consider SGFA, for which the enrichment ratio was not above 0.25. Turning to PIIQ, the enrichment ratio was not above 0.25. Next, WRAR: not above 0.25; EIDG: not above 0.25; PCTT: not above 0.25.

With WNWT, the enrichment ratio was not above 0.25. Turning to HNLY, the enrichment ratio is not above 0.25.

Regarding VAVH, the enrichment ratio was not above 0.25. For NWQA the value was not above 0.25. LNLC: the enrichment ratio was not above 0.25. Next, GVVA: not above 0.25; YISG: 0.553; QVRF: not above 0.25. For QKSR the value was not above 0.25.

As to HSFR, the enrichment ratio was not above 0.25. For the variant MFDG, the enrichment ratio was not above 0.25. For WDNI the value was not above 0.25; for MLHL, not above 0.25; for QYAR, not above 0.25. Next, INPA: not above 0.25. Regarding PLAV, the enrichment ratio is not above 0.25. With KYNH, the enrichment ratio was not above 0.25. For HGYA the value was not above 0.25. For WIWM, the enrichment ratio was not above 0.25. As for FYCN, the enrichment ratio is not above 0.25. Next, TANQ: 5.01. For PEQR the value was not above 0.25; for MLVQ, not above 0.25; for YAAN, not above 0.25. Next, RRMW: not above 0.25. RMMS: the enrichment ratio is not above 0.25. For KIAT, the enrichment ratio is not above 0.25.

As to RETE, the enrichment ratio was not above 0.25. Take PWQA: the enrichment ratio is not above 0.25. Consider VMYL, for which the enrichment ratio was not above 0.25. For DLMT the value was not above 0.25. Turning to TLFG, the enrichment ratio is not above 0.25. For the variant KVMG, the enrichment ratio is not above 0.25. Take NLIL: the enrichment ratio was not above 0.25. As to VNSE, the enrichment ratio is not above 0.25. For ERTQ the value was not above 0.25; for MIIC, not above 0.25. Turning to WEDS, the enrichment ratio was not above 0.25. For EEYF the value was not above 0.25; for IMHT, not above 0.25.

For the variant EDEH, the enrichment ratio was not above 0.25. For YHGL the value was not above 0.25; for PVEN, not above 0.25. For the variant AVPV, the enrichment ratio was 0.48. For MICP the value was not above 0.25. With RNWV, the enrichment ratio is not above 0.25. Consider DFRV, for which the enrichment ratio is not above 0.25.

In the case of TSSF, the enrichment ratio came to 9.67. For SLCG the value was 6.01; for AWIE, not above 0.25; for LQTQ, not above 0.25. For the variant SRHN, the enrichment ratio was not above 0.25. With RMGF, the enrichment ratio is not above 0.25.

For TNHL, the enrichment ratio is not above 0.25. Next, YWHE: not above 0.25.

WCWK: the enrichment ratio was not above 0.25. Consider HGTR, for which the enrichment ratio was not above 0.25. For the variant FPKF, the enrichment ratio is not above 0.25. As for FWEC, the enrichment ratio is not above 0.25. For RGFQ, the enrichment ratio is not above 0.25.

Turning to WQAK, the enrichment ratio is not above 0.25. Consider PAKQ, for which the enrichment ratio was not above 0.25. On to TDHN, for which the enrichment ratio is not above 0.25.
